From the supplement of paper PMC5655136
These are enrichments in a pooled selection; single values are uncertain.

Test system: NB7
Test: fold depletion of shRNA, plasmid library share / infected cells without Dox share (9 days) (ratio); higher = more depleted after infection (more toxic, leaky expression from a Tet-inducible vector; NB7 is a neuroblastoma line without caspase-8)
Method: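 Pooled lethality screen in NB7 neuroblastoma cells infected with Dox-inducible pTIP shRNA libraries. The libraries tile every 21-mer of the Venus, CD95L or CD95 ORF / 3'UTR; each hairpin is the 21-nt sense sequence + CTCGAG loop + antisense. Cells were cultured 9 days with or without 100 ng/ml Dox. shRNA representation was measured by deep sequencing of the genomic inserts, normalised to the total reads per subpool and averaged over technical replicates. Fold depletion is the plasmid library share / infected cells without Dox share (mean of 2 biological replicates), and the -Dox/+Dox share ratio is the mean of 4 replicate pairings; higher values mean more depletion (toxicity).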

[1] = shRNA pool: CD95 ORF + CD95 3'UTR + Venus libraries
[2] = shRNA pool: CD95L ORF + CD95L 3'UTR + Venus libraries
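Further: shRNA barcodes quantified by deep sequencing of PCR amplicons from cellular DNA, counts expressed as percent of each subpool, ratio averaged over two biological duplicates.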

Sequence | fold depletion of shRNA [1] | fold depletion of shRNA [2]
AATGTAATCAGTGTATGTTAG | 1.38 | 
AATGTAGATATTGTGAAGTAC |  | 0.728
AATGTCCAAGACACAGCAGAA | 1.62 | 
AATGTCCCATGTAAAACCTGC | 0.987 | 
AATGTCTATCCACAGGCTAAC | 2.81 | 
AATGTCTGTAGCTCCTCAACT |  | 0.868
AATGTGAACATGGAATCATCA | 1.22 | 
AATGTGAATTTTAAGAAATAA | 1.4 | 
AATGTTCAATAATGTCCCATG | 1.18 | 
AATGTTGTATTCAGTGAGGGT |  | 4.83
AATGTTTATGAGCCAGACAAA |  | 4.43
AATGTTTGACTATTATATATG | 0.849 | 
AATTACCCATATCCCCAGATC |  | 1.81
AATTACCTCTGATAATTCTAG | 1.1 | 
AATTAGTGTTTGAAAAGATTC | 1.16 | 
AATTATAAAATATAGGTAAAA | 1.03 | 
AATTATAATGTTTGACTATTA | 0.818 | 
AATTCAAACTTCAGAAATGAA | 0.854 | 
AATTCACATAGAAAACATTAA | 0.945 | 
AATTCAGACTATCATCCTCAA | 1.19 | 
AATTCAGTTCTGAGTATATGC | 2.34 | 
AATTCCACTAATTGTTTGGGT | 1.23 | 
AATTCTAGAGATTTTACCATA | 0.782 | 
AATTCTGCCATAAGCCCTGTC | 0.428 | 

Sequence | fold depletion of shRNA [1] | fold depletion of shRNA [2]
AATTGAGGAAGACTGTTACTA | 0.891 | 
AATTGCTCTTGTCATACCCCC | 2.89 | 
AATTGGCATCAACTTCATGGA | 1.59 | 
AATTGTAGGGGTGTGTGTGTG |  | 2.46
AATTGTCCTGCTTTCTGGAGT |  | 1.65
AATTGTGAATTCACATAGAAA | 0.715 | 
AATTGTTTGGGTGAAGAGAAA | 1.34 | 
AATTTAAATAAGGCTCTACCT | 1.04 | 
AATTTATCTGATGTTGACTTG | 1.92 | 
AATTTTAAGAAATAATATTTA | 1.44 | 
AATTTTGAGGAATCTCAGACG |  | 1.2
ACAAACTTCATCAAGAGTAAA | 0.854 | 
ACAAAGCCCATTTTTCTTCCA | 1.65 | 
ACAAATGGAGGAATATGACGG |  | 0.974
ACAAATGGCAGCTTATACATA | 1.43 | 
ACAAATGTCTATCCACAGGCT | 0.952 | 
ACAAATTCAGTTCTGAGTATA | 1.26 | 
ACAACAAATTCAGTTCTGAGT | 1.74 | 
ACAACAGCCACAACGTCTATA | 2.21 | 3.28
ACAACATCGAGGACGGCGGCG | 1.03 | 0.721
ACAACCACTACCTGAGCTACC | 2.65 | 3.6
ACAACCTGCCCCTGAGCCACA |  | 15.6
ACAACGTCTATATCACCGCCG | 2.38 | 1.83
ACAACTACAACAGCCACAACG | 4.5 | 3.93

Sequence | fold depletion of shRNA [1] | fold depletion of shRNA [2]
ACAAGACCCGCGCCGAGGTGA | 0.591 | 0.423
ACAAGCAGAAGAACGGCATCA | 0.81 | 
ACAAGCTGGAGTACAACTACA | 2.63 | 3.88
ACAAGGTCTACATGAGGAACT |  | 0.347
ACAAGTTCAGCGTGTCCGGCG | 1.73 | 0.986
ACAATATTTCAATTGTGAATT | 0.564 | 
ACAATCAACTCTAATAGTGCT |  | 1.2
ACAATGTCCAAGACACAGCAG | 1.27 | 
ACACAGACAAAGCCCATTTTT | 1.12 | 
ACACAGCAGAACAGAAAGTTC | 0.622 | 
ACACAGCATCATCTTTGGAGA |  | 1.31
ACACAGCATGTGTATTTCCAG |  | 2.29
ACACATTGATTAAAGATCTCA | 0.954 | 
ACACCAAGTGCAAAGAGGAAG | 1.08 | 
ACACCCCCATCGGCGACGGCC | 0.769 | 0.377
ACACCCTGGTGAACCGCATCG | 1.22 | 2.13
ACACCTATGGAATTGTCCTGC |  | 1.11
ACACCTTTTAACTCACCTCTC |  | 2.2
ACACTAAGTCAAGTTAAAGGC | 1.12 | 
ACACTCACCAGCAACACCAAG | 1.13 | 
ACACTCATCTTAGTGCCTGAG |  | 2.78
ACACTGTGACCCTTGCACCAA | 1.18 | 
